Results from the supplement of paper PMC3334620.
The full ranking holds about 33,000 sequences; the median of “E-score (-0.5 to 0.5)” is about -0.041, and the highest 2% start at about 0.37. The list shows a part of the results.

Each sequence was assayed against T1, Ecm22 (UniProt Q05958) (assay: PBM E-score (8-mer binding enrichment) (E-score (-0.5 to 0.5)); higher = stronger / more preferred TF binding; most listed sequences are background and not binding sites). Settings: protein concentration: 200 nM; construct: GST-full length.
T1 sequence: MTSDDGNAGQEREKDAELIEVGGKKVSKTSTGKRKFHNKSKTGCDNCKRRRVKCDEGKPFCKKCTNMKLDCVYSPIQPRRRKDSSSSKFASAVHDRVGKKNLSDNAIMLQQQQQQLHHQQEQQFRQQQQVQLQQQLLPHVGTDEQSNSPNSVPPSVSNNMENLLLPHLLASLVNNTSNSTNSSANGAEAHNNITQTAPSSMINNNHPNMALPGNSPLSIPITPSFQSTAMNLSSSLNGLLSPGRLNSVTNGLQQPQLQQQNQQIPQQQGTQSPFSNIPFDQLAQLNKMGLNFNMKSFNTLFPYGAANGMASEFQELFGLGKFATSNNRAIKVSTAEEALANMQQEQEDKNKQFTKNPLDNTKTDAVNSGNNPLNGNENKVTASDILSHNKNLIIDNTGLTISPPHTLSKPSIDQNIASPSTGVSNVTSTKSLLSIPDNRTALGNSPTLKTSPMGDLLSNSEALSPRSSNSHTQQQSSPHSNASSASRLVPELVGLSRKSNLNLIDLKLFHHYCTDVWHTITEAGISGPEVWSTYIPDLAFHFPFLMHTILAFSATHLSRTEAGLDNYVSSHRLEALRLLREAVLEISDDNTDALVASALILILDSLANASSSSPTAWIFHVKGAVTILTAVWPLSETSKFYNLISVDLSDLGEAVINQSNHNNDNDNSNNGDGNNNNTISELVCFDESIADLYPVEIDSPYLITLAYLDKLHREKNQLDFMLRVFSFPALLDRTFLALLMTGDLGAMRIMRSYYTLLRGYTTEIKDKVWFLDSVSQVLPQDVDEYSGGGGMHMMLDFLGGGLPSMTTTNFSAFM
In short: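 Universal all-10-mer Agilent arrays, fresh or stripped once, were converted to double-stranded form by primer extension. GST-tagged yeast transcription factors from PURExpress in vitro transcription/translation, full-length or DNA-binding domain only, were applied at about 100-200 nM and detected with fluorescent anti-GST. After masliner normalisation, the Universal PBM Analysis Suite scored each ungapped eight-base word together with its reverse complement by E-score.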

Sequence	PBM E-score
GCCCCCCA	-0.365
ACTTTTCT	-0.105
ATGCTGCA	-0.0735
CACACAAC	-0.0974
ACTGCCGA	0.0815
GCTACAGC	-0.0206
GATTGGCC	-0.213
AAACAGTT	-0.123
ACGCACTC	0.0457
AAACTTGA	-0.267
AGTAGCAT	-0.0436
AAGACTCA	-0.237
AGTTGCAA	-0.0399
CTCATAAC	-0.0818
ATGACAAT	0.126
ACCGGCGT	0.0869
TCGCTACA	0.11
ATGAATGC	-0.0891
CCACCAAC	-0.119
TAAAGACA	-0.196
CGCCTCTC	-0.179
GAATGCTC	-0.0572
CAGGCTGA	-0.325
CCATAGGC	-0.0851
ACGAGCTG	0.411

Sequence	PBM E-score
CTTCTGAC	-0.265
CAAGCGCA	0.159
ACATGAAC	0.0573
ATCACAGG	-0.112
TGCTCCAA	-0.232
GTATTCAC	0.00932
TCTCGTAA	0.438
AAACGTAC	0.288
ATGCTACG	0.242
CCCAGTCG	-0.00403
GAGCATAA	0.0875
AAATTTAA	0.113
AATTTCTG	0.138
GTTCTGCA	-0.0368
ATACGTAG	0.22
ACTCAGCC	-0.199
CCGTGCTA	-0.249
ATGCCCAT	-0.166
CATCGTCG	0.0968
ACTGCACA	-0.113
CGAAGACC	0.132
ATCCCCGG	-0.0814
CTCTTAAG	0.0377
AGTCGCCA	-0.167
CTTTGAGC	-0.171

Sequence	PBM E-score
ATCCTGCG	-0.0454
CATTATTC	-0.0305
TCCTTCCA	-0.208
GGGAAGAA	-0.108
ACACAAGG	-0.141
ATAGGTCG	0.0323
AGACAGCT	-0.329
AGTTAATA	0.0875
GCACCCGC	0.0501
CTCACCGC	-0.0829
AGGGTGAT	0.0727
CGAATCGC	0.149
ACTGCACT	-0.156
CGCAAAAC	0.187
CATGACCG	0.0281
CTTGAGAC	-0.25
CACGAATG	0.052
ATAGGTAA	-0.0147
AGACCTCT	-0.128
ACGCCTTC	0.0216
CCCACTCG	0.207
ACCTTTCC	-0.205
ATTAGTTC	0.0121
CGAGGGGC	0.129
CGCAGGAC	-0.0476

Sequence	PBM E-score
CATATATG	-0.192
AAAAGTTG	-0.0845
TAGGGCCA	-0.249
TAGGCTGA	-0.152
CGCCAATC	0.0407
ACCGTCAG	-0.052
CAAACTCA	-0.134
CGCGACTA	0.178
GGCCCTGA	-0.159
TATGTTAA	-0.00891
AAAAGACT	-0.14
AATGTCAT	0.0384
CGCTCTAA	0.12
GACGAGAC	0.029
TACTTGGA	0.0081
ATACAGCA	-0.00981
GTGACGGA	-0.0946
CAGCCGGG	-0.261
ATCGGACG	-0.02
ACTAGCGG	-0.145
GGTGAAGA	0.0382
CAAGGAAA	-0.0804
TAGAGTCA	-0.316
GTTTTCCA	0.061
ATGCTCCC	-0.0522

Sequence	PBM E-score
CGCATTGA	0.00604
ATTCAGGG	-0.289
CTCTGAAC	-0.0823
CGGATGAC	0.0835
CGTATTAC	0.357
GAGTTTAA	0.128
GACCCTAA	-0.0789
CGCTTGAC	-0.0297
AATCTAGT	0.015
AGGGGGAA	-0.122
ACTTCTTC	0.0112
GAGCAAGC	-0.0288
AACTACAG	-0.118
AAGGTCAC	-0.151
CCTGCTGA	-0.147
CCCCTCTA	-0.112
TCAGAAAA	-0.162
TACGGTGA	0.319
CTCTGCCC	-0.152
AAGGACTA	-0.284
GCCAGGGC	-0.169
CGCCCTCC	-0.203
AGCGGGCC	-0.0214
AAGGTTGA	-0.153
CCGAACAA	0.127

Sequence	PBM E-score
CGTTCACA	0.294
CTCAGCAG	-0.109
CACCAGGA	-0.118
ACAAATTG	0.179
CCTGGTTA	-0.278
ATATCCGG	0.102
TCTCAGCA	-0.206
GCTATCAC	-0.132
GTACGCGA	0.327
TGGCCACA	-0.294
AGGATGCA	-0.0202
AGTAATCA	-0.0686
ATCCGTTA	0.177
CAAAGACA	-0.114
GAACGCAC	0.179
ACGTCCTA	-0.198
TATTCGGA	0.149
GAACCGGA	0.118
TGGGCGAA	-0.0522
CGACCGAC	0.185
CGCTGGGC	0.0666
ACAAATAA	0.0538
CCACTCGC	0.184
CAGTCGGG	0.0609
TACGCACA	0.168

Sequence	PBM E-score
GGACCTGA	-0.127
AAAGCTAA	-0.102
ATGCAGGG	-0.126
CGATCGCA	0.253
AGGTCCGC	-0.238
GATGTGGA	-0.0129
GAATCCGA	0.189
AGGTGAAC	0.0634
ACCTAACT	-0.00792
CTTCGTAC	0.477
ATCATTCC	0.0822
GACCCCCA	-0.228
CCTCAACG	-0.166
CTACAAAC	0.0176
AATCTCGC	0.288
CTAGCCAG	-0.283
AAGCACAA	-0.0884
CAGCATTA	0.0115
GGCTATAC	0.178
AACTTTTG	-0.104
AAGGAGAG	-0.279
GCAATTAA	-0.126
